# Measurements: ChEMBL document CHEMBL4888484, “Replenishing the malaria drug discovery pipeline: Screening and hit evaluation of the MMV Hit Generation Library 1 (HGL1) against asexual blood stage Plasmodium falciparum ,using a nano luciferase reporter read-out” (2022)
# In all, about 150,000 compounds went through this assay and about 540 (0.36%) showed an effect of 50% or more. Some of the results follow.
# Test system: Plasmodium falciparum
# Experiment: Primary screen in NF54 nanoGlo assay, in single point, at 2uM, 72h; a lower Z score goes with more inhibition
# Type: functional, Erythrocyte
# Conditions: timepoint 72 hour
SMILES,% Inhibition [%],Z score
Cc1cccnc1OC[C@H]1CCCN1C,-1,0.12
Clc1ccccc1OCc1ccc(-c2nc3c4ccccc4ncn3n2)o1,-13,1.71
C[C@@H](C(=O)Nc1ccc2c(c1)CCN(C)C2=O)n1cnc2c(N)ncnc21,-23,2.66
Cc1cccc(NC(=O)c2cn3c4c(cccc4c2=O)C[C@@H]3C)c1,7,-0.88
Cc1nc(N(C)CC(C)(C)S(C)(=O)=O)c2c(C)csc2n1,38,-3.86
COc1cc(OC)cc(C(=O)Nc2ccc3nc(N4CCC(C)CC4)cc(C)c3c2)c1,58,-3.66
O=C(O)c1ccc(C[C@H]2CCCN(C(=O)Cc3cccnc3)C2)cc1,-12,2.4
CS(=O)(=O)N1CCC(C(=O)N2CCN(S(=O)(=O)c3ccccc3)CC2)CC1,-1,0.14
O=C(NCCOc1ccc(F)cc1F)NCCC1(O)CCC1,-26,2.6
O=C(c1nn(-c2ccccc2)c(=O)c2ccccc12)N1CCC[C@H]1c1nnc2ccccn12,-6,1.19
COC(=O)c1cc(C2CC2)nc2c1c(-c1ccc(F)cc1)nn2[C@H]1CCS(=O)(=O)C1,2,-0.3
O=S(=O)(NC1CC2CCC1C2)c1cc(Cl)ccc1Cl (stereo unspecified),-14,1.87
O=C(NCC1CCCC(O)C1)C1CCN(S(=O)(=O)c2cc(Cl)ccc2Cl)CC1 (stereo unspecified),-14,2.36
Cc1c(-c2noc(C(=O)NC3CCN(Cc4ccccc4)CC3)n2)oc2ccccc12,-12,1.42
COc1cc(-c2nc(CN(C)C[C@H]3CCCO3)c(C)o2)cc2c1OCO2,1,-0.19
COc1cc2c(cc1OC)CN(C(=O)Cn1c(C(F)(F)F)ccc(C(N)=O)c1=O)CC2,-12,1.91
CC(C)[C@H](Cc1ccc(F)cc1)NS(C)(=O)=O,-8,0.99
CC[C@H](C)[C@H](NC(=O)c1ccccn1)c1nc2ccccc2[nH]1,-12,1.5
CCN(C(=O)N(CC)[C@H]1CCN(CC(F)(F)F)C1)C(C)C,21,-2.73
Fc1ccc(COc2nccs2)c(F)c1,10,-1.54
Cc1cccc(N2CCN(C(=O)Cn3cccc3-c3nc(-c4ccccc4)cs3)CC2)c1C,5,-0.74
CC1CN(Cc2ccccc2)CCC1N(C)Cc1csc(-c2ccccn2)n1 (stereo unspecified),-9,1.03
O=C(C[C@@H]1O[C@H](CNCc2ccccn2)[C@@H](O)[C@H]1O)NCc1ccc(F)cc1,31,-3.45
CC(C)c1n[nH]c(NC(=O)c2ccc3nnnn3c2)n1,-12,1.97
C[C@@H](CCn1cccn1)OC(=O)c1cnn(C)c1,-14,1.6
COc1cncc(C(Nc2ncc(F)c(N(C)C)n2)[C@H]2C[C@H](O)C2)c1 (stereo partly specified),-8,1.47
Cn1cc(NS(=O)(=O)c2cn[nH]c2C(C)(C)C)cn1,-5,0.72

SMILES,% Inhibition [%],Z score
COCC(=O)NCC1(c2ccc([C@H](C)O)s2)CCCC1,-6,0.81
Cc1c(C(=O)NCc2ccc(N(C)C)cc2)cccc1-n1nnc2cccnc21,-4,0.81
CC1(C)NC(=O)N(Cc2noc(C3(c4ccccc4)CCC3)n2)C1=O,-8,0.76
Cc1cc(C(=O)N[C@@H]2CCC[C@@H](C(=O)N(C)Cc3cccnc3)CC(=O)N(C)C2)c(C(F)(F)F)o1,-6,1.1
CC(NC1CC(=O)N(C2CC2)C1)c1cccc(-c2ccncc2)c1 (stereo unspecified),-3,0.6
CCc1nc(CNc2cc(OC)c(Br)cn2)cs1,29,-3.33
Cc1nc(O)cc(CCNC(=O)Nc2ccc3c(c2)O[C@@H](C)C(=O)N3C)n1,-4,0.93
CN1CCC(C(=O)N2CCCC(C(F)(F)F)C2)CC1=O (stereo unspecified),-4,0.51
O=C([C@@H]1CCCN1C(=O)c1cncs1)N1CCCCC1,2,-0.38
O=C(c1ccc2c(c1)CCCC2)N1CCC[C@H]1c1ccsc1,1,-0.23
CC(C)Cc1nc(OCC(=O)c2ccccc2)c(C#N)c2c1CCC2,-19,2.02
CN(C(=O)[C@H]1CCc2nnnn2CC1)c1ccc(F)cc1,-1,0.17
Cc1cc(C#N)c(=O)[nH]c1C(=O)NCCCC(C)C,-9,1.25
Cc1cc(Cl)cc(C)c1CNCCNC(=O)N(C)C,-2,0.29
COc1ccc(Cc2c(C)nc(C)nc2N2CCN(C(=O)c3cccs3)CC2)cc1,4,-0.34
CN1CCCNC(=O)C12CCN(C(=O)c1nc3ccccc3[nH]1)CC2,3,-0.35
CC(C)Cn1ncc(NC(=O)N2CCc3cc(F)ccc3C2)c1C(F)F,13,-1.71
Cc1c(Cl)cc(C(=O)N(C)[C@@H](C)c2cncs2)cc1Cl,-9,1.31
CCOC(=O)N1CC[C@H](NCc2nc3cc(C)ccc3[nH]2)C1,-1,0.13
CCn1cc(C2OCCC2CNCc2ccc(OC)c(C#N)c2)cn1 (stereo unspecified),-3,0.5
CN(Cc1csc(-c2cccs2)n1)C(=O)c1ccc2scnc2c1,2,-0.29
Cn1cc(Cl)cc1C(=O)N1CC[C@](C)(O)[C@@H](O)C1,1,-0.13
O=C(c1noc2c1CCCC2)N1CCC(n2c(=O)[nH]c3ccccc3c2=O)CC1,-15,1.95
Cc1nnc(N2CCC[C@H]2COc2ccc(F)cc2)nc1C,-22,4.29
Cc1c(NC(=O)COc2ccc(OCc3ccccc3)cc2)c(=O)n(-c2ccccc2)n1C,9,-1.93
O=C(Nc1ccc(N2CCCS2(=O)=O)cc1)c1ccc2nsnc2c1,0,0.05
